In all, about 310,000 compounds went through this assay and about 2,200 (0.71%) showed an effect of 50% or more. The effect is printed as a negative number. The list shows a part of the results.
Biological target: human ether-à-go-go-related gene (hERG) potassium channel (human, UniProt Q12809)
Assay: primary screen, population patch clamp on CHO cells stably expressing hERG

Sequence of human ether-à-go-go-related gene (hERG) potassium channel (Q12809 whole entry, looked up): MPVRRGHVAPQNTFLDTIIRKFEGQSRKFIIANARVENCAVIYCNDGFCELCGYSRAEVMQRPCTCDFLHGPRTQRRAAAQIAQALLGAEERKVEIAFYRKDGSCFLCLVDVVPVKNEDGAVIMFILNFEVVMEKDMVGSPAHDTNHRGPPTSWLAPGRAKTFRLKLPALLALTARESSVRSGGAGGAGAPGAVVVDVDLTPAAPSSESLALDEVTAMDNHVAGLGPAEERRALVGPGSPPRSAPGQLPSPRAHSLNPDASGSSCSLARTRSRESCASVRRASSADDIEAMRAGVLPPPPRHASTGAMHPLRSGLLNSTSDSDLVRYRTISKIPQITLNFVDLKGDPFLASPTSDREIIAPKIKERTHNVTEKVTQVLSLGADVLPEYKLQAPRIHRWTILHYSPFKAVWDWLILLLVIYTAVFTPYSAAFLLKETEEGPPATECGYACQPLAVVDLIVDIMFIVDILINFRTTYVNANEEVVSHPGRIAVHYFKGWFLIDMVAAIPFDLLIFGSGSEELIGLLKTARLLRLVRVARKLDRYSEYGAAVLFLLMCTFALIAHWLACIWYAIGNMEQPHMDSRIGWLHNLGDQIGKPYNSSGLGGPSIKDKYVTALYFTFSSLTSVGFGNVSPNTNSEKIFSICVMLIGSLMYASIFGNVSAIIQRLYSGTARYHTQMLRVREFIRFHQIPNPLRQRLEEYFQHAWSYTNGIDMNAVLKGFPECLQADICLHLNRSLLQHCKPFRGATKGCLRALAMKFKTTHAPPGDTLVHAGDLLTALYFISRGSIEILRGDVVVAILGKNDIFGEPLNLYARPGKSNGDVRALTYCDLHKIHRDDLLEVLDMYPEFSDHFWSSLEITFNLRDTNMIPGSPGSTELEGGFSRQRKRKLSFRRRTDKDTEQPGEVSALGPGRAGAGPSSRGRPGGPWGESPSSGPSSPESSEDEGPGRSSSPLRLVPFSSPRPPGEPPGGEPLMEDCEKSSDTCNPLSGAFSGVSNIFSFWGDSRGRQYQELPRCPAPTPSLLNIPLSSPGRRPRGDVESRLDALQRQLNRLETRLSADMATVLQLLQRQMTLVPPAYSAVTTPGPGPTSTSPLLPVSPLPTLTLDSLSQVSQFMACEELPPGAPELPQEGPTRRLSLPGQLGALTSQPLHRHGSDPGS

Compound	hERG current change (%, negative = inhibition) at 1uM [%]
Cc1cc(=O)oc2c(C)c(OCC(=O)NCCN3CCOCC3)ccc12	10.8
CC(=O)Nc1ccc(NC(=O)CN(c2ccc(C34CC5CC(CC(C5)C3)C4)cc2)S(C)(=O)=O)cc1	10.6
COc1ccc(CCNC(=O)C/C(C)=N/NC(=O)C(c2ccccc2)c2ccccc2)cc1OC	-0.576
O=C(NCCc1c[nH]c2ccccc12)/C(=C\c1cccnc1)NC(=O)c1ccccc1Br	-8.31
COc1ccc(-c2nc3ccccc3c(=O)n2NC(=O)Cc2ccccc2)cc1	3.41
O=C(Nc1ccon1)c1sc2ccccc2c1Cl	11.1
CCOC(=O)c1ccc(NS(=O)(=O)c2ccc3oc(=O)[nH]c3c2)cc1	7.04
COc1ccc(CCNC(=O)NCCc2c[nH]c3ccccc23)cc1OC	8.08
C[C@]12CCC(=O)C=C1CC[C@@H]1[C@@H]2CC[C@@]2(C)[C@H]1CC[C@]2(O)C(=O)CO	13.2
CCOC(=O)CSc1ccc(C(=O)N2CCN(C)CC2)cc1[N+](=O)[O-]	8.86
CC(=O)NC(Cc1ccccc1)C(=O)N1CCN(C(=O)c2cccs2)CC1 (stereo not drawn)	5.81
COc1cccc(/C=C/C(=O)OCC(=O)c2ccc3c(c2)NC(=O)CO3)c1OC	0.422
O=C(c1ccc(S(=O)(=O)Cc2cc(F)ccc2F)c([N+](=O)[O-])c1)N1CCCC1	7.99
CCOC(=O)C(C)n1cnc2c(nnn2-c2cccc(Cl)c2)c1=O (stereo not drawn)	2.98
Cc1ccc(C23CC4CC(CC(NC(=O)NN)(C4)C2)C3)cc1	14.4
NC1=Nc2ccccc2Oc2ccccc21	-3.79
CCOc1ccc(-c2n[nH]c(=S)n2Cc2ccccc2)cc1	18.2
CCc1nc(CNC(=O)C2CCC(=O)N(CCc3cccc(F)c3)C2)no1 (stereo not drawn)	9.51
CCOc1nc(NCCO)nc(NCCC2=CCCCC2)n1	6.48
Cc1cc(-c2n[nH]c(=S)n2-c2ccccc2C)cs1	12.9
CCOc1cc(/C=N\Nc2nc(Nc3ccccc3)nc(N3CCOCC3)n2)ccc1OC(=O)c1ccco1	9.68

Compound	hERG current change (%, negative = inhibition) at 1uM [%]
CCOc1ccc(S(=O)(=O)NCCC(=O)NCc2ccncc2)cc1	5.27
O=C(COc1ccc(F)cc1)NNC(=O)c1cc2ccccc2oc1=O	-8.77
O=C1CCCc2nn(-c3ccccc3)nc21	17.4
CCc1nc(N[C@@H](Cc2c[nH]c3ccccc23)C(=O)O)c2oc3ccccc3c2n1	0.556
S=C(NCc1ccccc1)NC1CCCCC1	15.7
COc1ccc(CNC(=O)Cn2nc(C(F)(F)F)c(Br)c2C)cc1	4.47
NS(=O)(=O)c1ccc(CNC(=O)c2cc(-c3cccnc3)nc3ccc(Br)cc23)cc1	12.9
NC(=O)Cn1c(=O)n(Cc2ccccc2)c(=O)c2cccnc21	8.1
CC(NC(=O)/C(=C\c1cccc([N+](=O)[O-])c1)NC(=O)c1ccco1)C(=O)O (stereo not drawn)	42.3
CC(=O)OCC(=O)N1N=C(c2ccc3ccccc3c2)CC1c1ccccc1 (stereo not drawn)	2.47
O=C(COC(=O)c1ccc(S(=O)(=O)N2CCOCC2)cc1)Nc1ccccc1F	5.91
Cc1cc(C)n2nc(SCc3c(F)cccc3Cl)nc2n1	11.1
O=C(COC(=O)c1ccc(S(=O)(=O)NCc2ccco2)cc1)Nc1ccccc1OC(F)F	-0.181
CC1(c2ccc(OC(F)F)cc2)NC(=O)N(CC(=O)Nc2cccc(F)c2)C1=O (stereo not drawn)	4.87
Cc1ccc(NC(=O)COC(=O)C2CSC3(C)CCC(=O)N23)c(C)c1 (stereo not drawn)	8.46
Br.N=c1n(CC(=O)c2ccc([N+](=O)[O-])cc2)c2ccccc2n1Cc1ccccc1Cl	9.63
CCO[C@@H]1OC(C(=O)NC2CC2)=C[C@H](c2ccc(Br)cc2)[C@H]1CCCO	4.37
Cc1ccc(CC2CC(=O)N(c3nc(C)cc(C)n3)C2=O)cc1 (stereo not drawn)	6.69
COc1ccc(N2CCN(CC(O)c3c[nH]c4ccc(OC)cc34)CC2C)cc1 (stereo not drawn)	-50.6
CC(=O)n1cc(-c2ccncc2)c2ccccc21.Cl	6.42
N[C@@H](C(=O)N[C@@H]1C(=O)N2C(C(=O)O)=C(Cl)CS[C@H]12)c1ccccc1	16.4

— PMC4336329 (PLoS ONE, 2015)
